The test concerns the target T1, Nectin-4 on SK-BR-3 cells (UniProt Q96NY8 32-510, limits assumed).
T1 sequence (looked up): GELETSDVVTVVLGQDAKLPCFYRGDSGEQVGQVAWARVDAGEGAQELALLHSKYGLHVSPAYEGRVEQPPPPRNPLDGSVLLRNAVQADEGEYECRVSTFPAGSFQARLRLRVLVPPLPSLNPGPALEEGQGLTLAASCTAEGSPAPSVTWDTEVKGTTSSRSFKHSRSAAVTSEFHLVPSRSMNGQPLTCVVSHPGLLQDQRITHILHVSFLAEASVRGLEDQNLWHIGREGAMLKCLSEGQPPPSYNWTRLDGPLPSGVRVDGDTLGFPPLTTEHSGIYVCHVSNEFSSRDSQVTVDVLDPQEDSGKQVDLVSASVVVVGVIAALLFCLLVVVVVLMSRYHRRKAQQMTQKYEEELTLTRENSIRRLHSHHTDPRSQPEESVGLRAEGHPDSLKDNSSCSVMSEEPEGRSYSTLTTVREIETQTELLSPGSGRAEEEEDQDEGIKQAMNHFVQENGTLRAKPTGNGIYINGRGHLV
As to the kind of experiment: cell-based or functional assay.

B1: B12-3 (other)
heavy: QVQLVQSGAEVKKPGASVKVSCQASGYRFSNFVIHWVRQAPGQRFEWMGWINPYNGNKEFSAKFQDRVTFTADTSANTAYMELRSLRSADTAVYYCARVGPYSWDDSPQDNYYMDVWGKGTTVIVSS[here human IgG1 constant region without letters]
light: EIVLTQSPGTLSLSPGERATFSCRSSHSIRSRRVAWYQHKPGQAPRLVIHGVSNRASGISDRFSGSGSGTDFTLTITRVEPEDFALYYCQVYGASSYTFGQGTKLERKRTVAAPSVFIFPPSDEQLKSGTASVVCLLNNFYPREAKVQWKVDNALQSGNSQESVTEQDSKDSTYSLSSTLTLSKADYEKHKVYACEVTHQGLSSPVTKSFNRGEC
modifications: linker-payload 3 (BCN-HS-PEG2-HS-(va-PAB-Ex)2, exatecan) clicked to 6-N3-GalNAc on the trimmed core GlcNAc of the heavy-chain glycan; average DAR 3.75
notes: negative control; also called conjugate B12-3; control ADC B12-3
For B1, the “IC50 (nM), in vitro cytotoxicity on SK-BR-3 cells (ATPlite luminescence)” value was more than 100 nM.

For the origin of these results see patent publication US20250205353A1 (SYNAFFIX B V, published 2025).
